These results are taken from PubChem BioAssay AID504444 (National Center for Advancing Translational Sciences (NCATS), 2011).

Hit rate of the full screen: of about 360,000 compounds, about 7,500 (2.1%) were called active. Roughly 20% stayed inconclusive and do not appear here. Calls follow the shape of the dose curve; as a rule, active = well fitted inhibition curve with a large enough effect; inconclusive = small, poorly fitted or top-dose-only effect, or effect the other way; inactive = flat fitted curve, though single readings scatter. The list shows a part of the results, in another mix than the full data. Some structures have more than one record in an assay (separate samples or runs), and their calls can disagree.
% is scaled to controls: 0 for no effect and ±100 for the full control effect; potency is read from the fitted curve at half-maximal effect.

A short description of the test: Nrf2 qHTS screen for inhibitors. Also: nearly all actives have a fitted effect of over 60% in size. The settings on record: A549 ARE-Fluc reporter, luciferase luminescence, 18-24 h; series mostly up to 46 µM; activity change, negative = inhibition: at the top concentration. From the text: NIH Molecular Libraries Probe Production Network [MLPCN]
NIH Chemical Genomics Center [NCGC]
Assay Provider: Shyam Biswal, Johns Hopkins University
Nrf2 is a transcription factor that maintains cellular redox homoestasis and protects cells from xenobiotics. Nrf2 binds to the antioxidant response element (ARE) to induce gene expression of a broad spectrum of genes that encode for antioxidants. […] Finding a small molecule that act as an inhibitor of Nrf2 function would represent a novel therapeutic target that could lead to improvement in survival of patients undergoing chemo- and/or radio- therapy.
This is the Nrf2 activity measured in the luminescent read.
1. Shibata, T., et al., Genetic Alteration of Keap1 Confers Constitutive Nrf2 Activation and Resistance to Chemotherapy in Gallbladder Cancer. Gastroenterology, 2008.
2. Sjoblom, T., et al., The consensus coding sequences of human breast and colorectal cancers. Science, 2006. 314(5797): p. 268-74.
NCGC Assay Protocol Summary:
A concentration-response assay was performed with A549 ARE_Fluc cells which are suspended in 5% FBS OPTI-MEM. Five uL were dispensed into 1536-well white TC-treated plate using the Kalypsys dispenser to achieve a density of 5000 cells/well in all columns except column 1. The plate is incubated at 37deg C at 5% CO2 for 2 hours before 23 nL of compounds are added with the Kalypsys pin tool equipped with a 1,536-pin array containing 10-nL slotted pins (FP1S10, 0.457-mm diameter, 50.8 mm long; V&P Scientific). The control compounds Budesonide and Staurosporine are both added at a concentration of 2mM and Budesonide is also added as a 1:10 titration, starting at 200uM, to achieve dose-response. After an 18-24 hour incubation at 37deg C at 5% CO2, 5ul of medium is added to column 1. Afterwards 1ul of 5x of CellTiter-Fluor (Promega) is added to every well. The plate is then incubated at 37deg C at 5% CO2 for 30 minutes before they are read on the ViewLux (Perkin Elmer) for a fluorescent read Ex=405(10)/Em=525(10) for a 3 second exposure, 2x binning, and high gain. Then 3 uL of 3x BugLite is dispensed into all wells and the plate is incubated at ambient room temperature for 15 minutes. Afterwards another ViewLux read is performed using the clear filter to get a luminescent read with the settings of 40 second exposure, 2x binning, and high gain. Cytotoxicity is assessed through the first fluorescent read and then biochemical activity against Nrf2 is measured in the luminescent read.
As for `O=C(Nc1ccccc1)C1=C[C@H](C2CCCCC2)C[C@H](OCc2ccc(CO)cc2)O1`, the “activity change, negative = inhibition” value is inactive: 9.46%.

With `COc1ccc(SCCN2CCN(CC(C)C)CCC2=O)cc1`, the “activity change, negative = inhibition” value is inactive: 3.76%.

Take `N#C/C(=C(/O)CCl)c1nnc2n1CCCCC2`: the “activity change, negative = inhibition” value was inactive: 3.37%.

For the compound `COc1cccc(/C=N/n2c(N)c(S(=O)(=O)c3cccs3)c3nc4ccccc4nc32)c1OC`, the Potency was active: 3.66 µM.

For `Cc1ccc2c(c1)N(CC(=O)NCCc1ccc(Cl)cc1)C(=O)c1cccnc1O2`, the “activity change, negative = inhibition” value is inactive: -1.93%.

Regarding `CCOc1cc(/C=N/N=C(\N)c2nonc2N)cc(Br)c1OCc1cccc2ccccc12`, the Potency is active: 20.6 µM.

`Cc1ccc(S(=O)(=O)N2CCC[C@H]2C(=O)NCc2ccccc2Cl)cc1`: the “activity change, negative = inhibition” value is inactive: -12.7%.

For `COc1ccc(-n2nnnc2-c2cnc(N3CCCC3)nc2C(F)(F)F)cc1`, the Potency is active: 18.4 µM.

Take `CCO[C@H]1OC(C(=O)Nc2ccccc2)=C[C@@H](c2coc3ccccc3c2=O)[C@@H]1CCCO`: the “activity change, negative = inhibition” value is inactive: -13.6%.

In the case of `NCc1ccccc1`, the “activity change, negative = inhibition” value is inactive: 2.94%.

As to `COC(=O)c1cc(S(=O)(=O)N2CCN(c3ccc(F)cc3)CC2)cn1C`, the “activity change, negative = inhibition” value was inactive: -18.5%.

Turning to `COc1ccc(OC)c(NC(=O)Cc2c(C)n(C(=O)c3ccc(Cl)cc3)c3ccc(OC)cc23)c1`, the Potency is active: 23.1 µM.

Take `CCOC(=O)[C@@H]1[C@H]2COc3cc(OC)ccc3[C@H]2N2C(=O)N(c3ccc(F)cc3)C(=O)[C@@]12C`: the “activity change, negative = inhibition” value is inactive: 4.95%.

As for `O=C(O)c1ccc(NC(=O)c2cc3ccccc3o2)cc1`, the “activity change, negative = inhibition” value is inactive: -10.8%.

As for `COCCCn1c(=O)c2sccc2n2c(CCCC(=O)NCc3ccc(F)cc3)nnc12`, the “activity change, negative = inhibition” value is inactive: -2.22%.

Turning to `Cc1ccc2[nH]c3c(=O)n(CC(=O)NCCc4ccc(Cl)cc4)ncc3c2c1`, the “activity change, negative = inhibition” value is inactive: 11%.

Consider `C=CC[C@@H](CC(=O)N[C@@H](CO)Cc1ccccc1)C(=O)N[C@H](COC(=O)[C@H](CC=C)CC(=O)OC(C)(C)C)Cc1ccccc1`, for which the “activity change, negative = inhibition” value is inactive: 2.9%.

`O=S(=O)(Nc1nc2ccccc2nc1N1CCN(c2ccccc2)CC1)c1ccc(F)cc1`: the Potency was active: 25.9 µM.

As to `CC1=C(C(=O)OC(C)C)C(c2cn(-c3ccccc3)nc2-c2cccs2)NC(=O)N1` (configuration not stated), the Potency was active: 18.4 µM.

With `CCOc1ccc(N(CC(=O)N2CCC(Cc3ccccc3)CC2)S(C)(=O)=O)cc1`, the Potency is active: 25.9 µM.

In the case of `O=S(=O)(c1ccc2nc(N3CCN(c4ccccc4F)CC3)ccc2c1)N1CCCCC1`, the “activity change, negative = inhibition” value was inactive: 6.16%.

For the compound `COC(=O)c1[nH]c2ccccc2c1NC(=O)CN1CCN(c2cccc(OC)c2)C(C)C1` (configuration not stated), the Potency is active: 25.9 µM.

For the compound `O=C(c1ccc(CS(=O)(=O)c2ccc(Br)cc2)o1)N1CCN(c2ccc(F)cc2)CC1`, the “activity change, negative = inhibition” value is inactive: -0.927%.

`CC(=O)C[C@H](O)CC(=O)[C@@H]1OC(=O)[C@@H](C)C/C=C\Cc2ccccc21`: the “activity change, negative = inhibition” value was inactive: 3.57%.

On to `C(=C/c1nccc2c1[nH]c1ccccc12)/c1ccc2c(c1)OCO2`, for which the “activity change, negative = inhibition” value is inactive: -14.5%.

For the compound `O=C1N(c2ccccc2C(F)(F)F)O[C@]1(c1ccccc1)C1CCCC1`, the “activity change, negative = inhibition” value is inactive: 3.38%.

Consider `CC1(C)c2[nH]c3ccccc3c2C[C@@H]2C(=O)N(Cc3ccc(F)cc3)C(=O)N21`, for which the “activity change, negative = inhibition” value is inactive: -23.1%.

Take `Cn1nc(-c2cccnc2)nc2c(=O)n(C)c(=O)nc1-2`: the Potency is active: 7.31 µM.

Consider `COC(=O)c1ccccc1NC(=O)CCCn1nc(C)c2c(C)n(-c3ccccc3)nc2c1=O`, for which the “activity change, negative = inhibition” value is inactive: -4.68%.

Turning to `C=CCC[C@@H](Cc1ccc(F)cc1)C(=O)OC[C@@H](Cc1c[nH]c2ccccc12)NC(=O)[C@@H](CC=C)CC(=O)N[C@H](CO)Cc1ccccc1`, the “activity change, negative = inhibition” value is inactive: -1.89%.

On to `CCO[C@H]1OC(C(=O)NCc2ccccc2)=C[C@@H](c2coc3ccccc3c2=O)[C@@H]1CCCO`, for which the “activity change, negative = inhibition” value was inactive: -15.8%.

With `O=C(O)c1ccc(Cl)c(S(=O)(=O)N2CCCCCC2)c1`, the Potency was active: 25.9 µM.

As to `C[C@H]1CC[C@@]2(O[C@@H](CCO)C[C@@H](O)[C@@H]2O)O1`, the “activity change, negative = inhibition” value was inactive: -11.3%.

Take `Cc1ccc2c(c1)c1c(c(=O)n(-c3ccccc3)c(=O)n1CC(=O)NCC1CCCO1)n2C` (configuration not stated): the “activity change, negative = inhibition” value was inactive: 7.49%.

On to `COC(=O)C(C)Sc1ccc2nnc(CCNS(=O)(=O)c3ccc(C)cc3)n2n1` (configuration not stated), for which the “activity change, negative = inhibition” value was inactive: 4.02%.

As for `COc1cc(OC)c2c(-c3ccccc3)cc(=O)oc2c1C(CCN1CCCC1)c1ccc2c(c1)OCO2` (configuration not stated), the “activity change, negative = inhibition” value is inactive: 21%.

As to `CCOC(=O)/C(=C\c1ccc(N2CCC(c3ccccc3)=N2)cc1)C(C)=O`, the “activity change, negative = inhibition” value was inactive: 116%.

Take `CN(C)CCN(Cc1ccccc1)S(=O)(=O)c1csc(C(N)=O)c1`: the “activity change, negative = inhibition” value is inactive: 0.0968%.

Regarding `COc1ccc(N(CC(C)C)S(=O)(=O)c2nnc(NC(=O)c3ccco3)s2)cc1`, the “activity change, negative = inhibition” value was inactive: -7.82%.

Regarding `C=CC[C@H](CC(=O)N[C@H](CO)Cc1ccccc1)C(=O)N[C@H](COC(=O)[C@H](CC=C)CC(=O)OC(C)(C)C)Cc1c[nH]c2ccccc12`, the “activity change, negative = inhibition” value was inactive: 9.36%.

On to `O=C(O)CCn1cc(/C=C\C(=O)c2ccc(Cl)cc2)c(-c2cccc(Br)c2)n1`, for which the “activity change, negative = inhibition” value is inactive: -33.3%.

On to `Cc1n[nH]c(C)c1S(=O)(=O)N1CCCC(C(=O)Nc2ccc(Br)cc2)C1` (configuration not stated), for which the “activity change, negative = inhibition” value was inactive: 10.6%.
